Source: paper PMC10184828
These are yes or no findings as the source states them, for the method shown. In cells and extracts the contact can be indirect. Some results given as binding are weak or reduced against the parent protein; the word gives no strength. Sequences can lack the tags named with a protein.

By UniProt entry, the sequences of proteins in these tests, tags left out. Where a name states a change or a piece, a line headed by the entry shows the natural chain unless it says otherwise. Chains listed by the source or under a name are the forms on record and can include a tag or linker.
UniProt P48415: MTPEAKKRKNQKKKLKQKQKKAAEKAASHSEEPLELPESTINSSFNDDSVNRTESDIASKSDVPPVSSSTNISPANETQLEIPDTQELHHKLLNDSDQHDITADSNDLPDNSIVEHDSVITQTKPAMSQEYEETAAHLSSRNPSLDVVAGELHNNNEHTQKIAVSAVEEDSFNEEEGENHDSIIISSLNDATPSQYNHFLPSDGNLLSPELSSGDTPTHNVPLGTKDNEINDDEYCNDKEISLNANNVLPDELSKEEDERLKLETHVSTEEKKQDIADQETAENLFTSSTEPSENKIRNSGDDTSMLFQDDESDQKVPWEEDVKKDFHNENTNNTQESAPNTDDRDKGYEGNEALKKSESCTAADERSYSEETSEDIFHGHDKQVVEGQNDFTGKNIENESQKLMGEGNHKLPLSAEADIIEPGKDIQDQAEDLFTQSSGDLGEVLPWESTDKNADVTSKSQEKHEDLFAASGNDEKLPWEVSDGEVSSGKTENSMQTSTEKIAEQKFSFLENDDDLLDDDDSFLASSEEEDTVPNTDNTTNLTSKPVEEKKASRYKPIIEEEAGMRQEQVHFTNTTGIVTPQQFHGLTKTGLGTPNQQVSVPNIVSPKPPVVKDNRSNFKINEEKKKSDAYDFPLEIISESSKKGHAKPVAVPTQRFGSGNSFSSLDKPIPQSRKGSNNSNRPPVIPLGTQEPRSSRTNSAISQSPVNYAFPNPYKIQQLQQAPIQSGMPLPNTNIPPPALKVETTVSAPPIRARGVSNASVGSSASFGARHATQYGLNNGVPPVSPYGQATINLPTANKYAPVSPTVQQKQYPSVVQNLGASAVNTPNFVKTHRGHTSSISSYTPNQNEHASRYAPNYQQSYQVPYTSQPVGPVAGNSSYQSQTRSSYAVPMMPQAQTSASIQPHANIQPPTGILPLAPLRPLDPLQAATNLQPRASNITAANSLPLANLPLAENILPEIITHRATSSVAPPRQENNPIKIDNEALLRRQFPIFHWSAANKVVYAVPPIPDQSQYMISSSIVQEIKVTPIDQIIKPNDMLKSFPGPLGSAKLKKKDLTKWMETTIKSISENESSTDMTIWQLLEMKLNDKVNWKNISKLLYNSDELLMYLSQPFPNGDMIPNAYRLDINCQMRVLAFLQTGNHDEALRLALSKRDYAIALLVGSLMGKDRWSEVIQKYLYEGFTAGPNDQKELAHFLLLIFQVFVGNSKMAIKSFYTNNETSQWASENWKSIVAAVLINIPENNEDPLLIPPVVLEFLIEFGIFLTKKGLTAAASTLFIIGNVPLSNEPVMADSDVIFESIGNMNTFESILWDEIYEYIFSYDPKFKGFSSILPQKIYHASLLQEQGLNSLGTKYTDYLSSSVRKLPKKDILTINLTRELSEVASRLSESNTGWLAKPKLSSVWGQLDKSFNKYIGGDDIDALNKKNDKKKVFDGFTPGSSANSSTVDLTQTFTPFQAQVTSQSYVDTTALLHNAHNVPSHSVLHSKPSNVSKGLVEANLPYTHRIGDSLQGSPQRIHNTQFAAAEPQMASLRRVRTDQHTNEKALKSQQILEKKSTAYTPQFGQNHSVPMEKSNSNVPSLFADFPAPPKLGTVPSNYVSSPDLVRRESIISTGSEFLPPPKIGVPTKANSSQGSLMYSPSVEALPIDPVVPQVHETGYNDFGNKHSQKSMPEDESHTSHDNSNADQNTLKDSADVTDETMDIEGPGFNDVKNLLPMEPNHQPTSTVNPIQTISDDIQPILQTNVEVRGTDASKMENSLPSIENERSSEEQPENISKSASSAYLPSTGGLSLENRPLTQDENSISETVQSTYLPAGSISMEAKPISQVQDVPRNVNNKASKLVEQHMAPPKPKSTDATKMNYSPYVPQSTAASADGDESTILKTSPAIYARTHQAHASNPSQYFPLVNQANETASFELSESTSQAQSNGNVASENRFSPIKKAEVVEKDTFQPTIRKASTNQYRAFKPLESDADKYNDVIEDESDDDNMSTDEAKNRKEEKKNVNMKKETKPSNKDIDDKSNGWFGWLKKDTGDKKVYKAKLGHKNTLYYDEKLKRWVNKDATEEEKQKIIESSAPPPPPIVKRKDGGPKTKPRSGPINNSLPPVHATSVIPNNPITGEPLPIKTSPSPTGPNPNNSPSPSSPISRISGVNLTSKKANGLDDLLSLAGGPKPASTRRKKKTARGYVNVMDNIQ
Sec16^ΔS4B–HA (P48415, form named): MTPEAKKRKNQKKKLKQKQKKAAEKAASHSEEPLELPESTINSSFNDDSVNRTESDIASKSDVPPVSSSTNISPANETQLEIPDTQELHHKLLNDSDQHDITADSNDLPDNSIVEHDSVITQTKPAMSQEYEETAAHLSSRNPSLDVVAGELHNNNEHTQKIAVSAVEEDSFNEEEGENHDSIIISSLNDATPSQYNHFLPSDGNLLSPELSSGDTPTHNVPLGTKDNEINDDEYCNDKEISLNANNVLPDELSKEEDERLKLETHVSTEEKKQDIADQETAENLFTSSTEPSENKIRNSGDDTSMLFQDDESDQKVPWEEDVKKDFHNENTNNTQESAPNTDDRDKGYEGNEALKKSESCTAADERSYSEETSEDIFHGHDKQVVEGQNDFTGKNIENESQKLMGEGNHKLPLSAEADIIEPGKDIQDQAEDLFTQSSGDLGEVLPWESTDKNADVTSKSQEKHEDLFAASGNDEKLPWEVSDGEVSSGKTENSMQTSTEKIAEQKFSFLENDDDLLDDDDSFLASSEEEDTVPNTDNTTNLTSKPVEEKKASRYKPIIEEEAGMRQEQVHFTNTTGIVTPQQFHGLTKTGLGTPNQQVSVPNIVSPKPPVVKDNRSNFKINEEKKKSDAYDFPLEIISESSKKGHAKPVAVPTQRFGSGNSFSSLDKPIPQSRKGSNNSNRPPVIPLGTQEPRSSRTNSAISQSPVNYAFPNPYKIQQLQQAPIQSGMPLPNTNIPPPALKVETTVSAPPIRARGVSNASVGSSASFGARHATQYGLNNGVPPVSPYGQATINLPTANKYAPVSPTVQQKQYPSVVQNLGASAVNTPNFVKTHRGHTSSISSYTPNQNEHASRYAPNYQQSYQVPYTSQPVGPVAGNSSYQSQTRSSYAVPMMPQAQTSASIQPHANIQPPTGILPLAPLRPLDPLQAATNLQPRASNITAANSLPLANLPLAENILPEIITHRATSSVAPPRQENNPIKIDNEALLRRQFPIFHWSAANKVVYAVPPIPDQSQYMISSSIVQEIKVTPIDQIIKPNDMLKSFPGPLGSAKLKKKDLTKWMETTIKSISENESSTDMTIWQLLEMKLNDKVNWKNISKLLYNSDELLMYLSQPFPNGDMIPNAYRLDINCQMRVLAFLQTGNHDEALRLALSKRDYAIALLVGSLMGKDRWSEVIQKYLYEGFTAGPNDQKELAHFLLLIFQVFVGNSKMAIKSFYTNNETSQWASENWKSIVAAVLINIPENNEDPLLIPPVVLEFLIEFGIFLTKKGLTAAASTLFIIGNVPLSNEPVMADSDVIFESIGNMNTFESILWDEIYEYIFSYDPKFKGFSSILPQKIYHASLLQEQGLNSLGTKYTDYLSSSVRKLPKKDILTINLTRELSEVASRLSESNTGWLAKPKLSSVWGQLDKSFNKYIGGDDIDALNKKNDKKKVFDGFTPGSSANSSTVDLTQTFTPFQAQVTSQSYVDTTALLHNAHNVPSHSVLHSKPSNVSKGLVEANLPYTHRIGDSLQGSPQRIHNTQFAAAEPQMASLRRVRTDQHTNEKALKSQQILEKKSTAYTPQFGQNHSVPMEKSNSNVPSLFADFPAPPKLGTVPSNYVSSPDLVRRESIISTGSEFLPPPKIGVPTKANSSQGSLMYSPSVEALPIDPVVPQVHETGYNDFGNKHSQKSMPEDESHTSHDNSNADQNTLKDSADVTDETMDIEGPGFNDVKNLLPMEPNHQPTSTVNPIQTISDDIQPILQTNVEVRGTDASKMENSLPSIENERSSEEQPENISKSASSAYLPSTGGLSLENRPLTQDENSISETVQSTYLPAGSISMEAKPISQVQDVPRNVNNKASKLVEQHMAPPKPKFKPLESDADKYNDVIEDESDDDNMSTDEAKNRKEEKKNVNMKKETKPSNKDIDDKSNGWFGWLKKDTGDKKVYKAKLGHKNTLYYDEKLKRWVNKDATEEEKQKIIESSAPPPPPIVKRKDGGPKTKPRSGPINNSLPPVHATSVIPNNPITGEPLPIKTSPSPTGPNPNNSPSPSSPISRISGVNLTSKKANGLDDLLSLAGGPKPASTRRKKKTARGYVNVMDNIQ

Key:
[1] = target: Sec16^ΔS4B–HA (S. cerevisiae) (UniProt P48415); assay: co-IP; octylglucoside-solubilized extracts of sed4Δ sec16Δ cells; immunoprecipitation with anti-HA antibody, blot with anti-HA and anti-V5; 25 mM HEPES pH 8.0, 50 mM NaCl, 1 mM EDTA, 5% glycerol, 4°C
Sec16–HA (S. cerevisiae) = Sec16–HA (S. cerevisiae) (UniProt P48415); assay: as above
[2] = target: T1, Sed4^Δ544L–Flag (S. cerevisiae) (UniProt P25365); assay: co-IP; octylglucoside-solubilized extracts of sed4Δ cells (or sed4Δ sec16Δ cells expressing Sec16 or Sec16^ΔS4B); immunoprecipitation with anti-Flag (anti-DDDDK) antibody, blot with anti-Flag and anti-V5; 25 mM HEPES pH 8.0, 150 mM NaCl, 1 mM EDTA, 5% glycerol, 4°C
T1 sequence: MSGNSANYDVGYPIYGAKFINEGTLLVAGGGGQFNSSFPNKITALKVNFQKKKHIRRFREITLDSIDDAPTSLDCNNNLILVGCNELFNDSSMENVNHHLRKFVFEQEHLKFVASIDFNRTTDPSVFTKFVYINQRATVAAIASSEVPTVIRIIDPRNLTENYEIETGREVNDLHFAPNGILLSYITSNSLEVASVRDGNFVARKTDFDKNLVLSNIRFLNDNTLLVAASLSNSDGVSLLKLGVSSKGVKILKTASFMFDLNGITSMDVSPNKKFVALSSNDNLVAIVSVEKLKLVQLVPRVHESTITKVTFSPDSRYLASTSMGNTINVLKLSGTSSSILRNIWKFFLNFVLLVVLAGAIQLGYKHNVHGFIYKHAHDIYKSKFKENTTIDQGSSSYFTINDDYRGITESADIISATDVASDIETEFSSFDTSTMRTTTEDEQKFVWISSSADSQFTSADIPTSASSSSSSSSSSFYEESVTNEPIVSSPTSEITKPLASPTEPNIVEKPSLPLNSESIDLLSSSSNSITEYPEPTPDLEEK

Sed4–V5 (S. cerevisiae) = target: T2, Sed4–V5 (S. cerevisiae) (UniProt P25365); assay: as above
T2 sequence: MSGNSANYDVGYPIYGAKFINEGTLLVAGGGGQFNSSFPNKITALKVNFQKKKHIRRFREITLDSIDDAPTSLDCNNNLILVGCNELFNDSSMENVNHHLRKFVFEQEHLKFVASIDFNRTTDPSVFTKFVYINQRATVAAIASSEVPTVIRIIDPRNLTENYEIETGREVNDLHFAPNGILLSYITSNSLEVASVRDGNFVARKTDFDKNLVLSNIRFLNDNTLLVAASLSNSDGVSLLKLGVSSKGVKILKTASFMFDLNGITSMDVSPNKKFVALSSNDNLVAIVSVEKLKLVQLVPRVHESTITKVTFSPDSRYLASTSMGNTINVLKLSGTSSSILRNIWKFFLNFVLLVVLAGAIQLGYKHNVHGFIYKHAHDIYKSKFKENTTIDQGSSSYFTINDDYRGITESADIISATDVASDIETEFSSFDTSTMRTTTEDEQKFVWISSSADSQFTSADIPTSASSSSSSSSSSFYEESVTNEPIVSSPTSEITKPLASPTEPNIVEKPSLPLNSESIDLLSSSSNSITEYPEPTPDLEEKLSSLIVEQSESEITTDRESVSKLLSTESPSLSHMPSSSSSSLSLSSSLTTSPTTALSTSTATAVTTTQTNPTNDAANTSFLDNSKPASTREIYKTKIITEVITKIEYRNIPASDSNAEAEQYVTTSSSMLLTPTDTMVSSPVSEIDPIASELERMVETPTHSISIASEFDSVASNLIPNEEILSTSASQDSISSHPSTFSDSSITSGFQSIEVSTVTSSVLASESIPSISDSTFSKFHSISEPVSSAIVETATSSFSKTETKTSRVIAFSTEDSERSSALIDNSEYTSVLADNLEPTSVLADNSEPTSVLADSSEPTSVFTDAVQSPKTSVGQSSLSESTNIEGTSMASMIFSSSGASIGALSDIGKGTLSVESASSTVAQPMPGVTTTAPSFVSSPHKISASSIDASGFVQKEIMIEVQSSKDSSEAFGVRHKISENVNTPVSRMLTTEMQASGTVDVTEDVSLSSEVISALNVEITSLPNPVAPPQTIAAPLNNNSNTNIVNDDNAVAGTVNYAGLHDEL

[3] = target: T3, Sed4^Δ942L–Flag (S. cerevisiae) (UniProt P25365); assay: as above
T3 sequence: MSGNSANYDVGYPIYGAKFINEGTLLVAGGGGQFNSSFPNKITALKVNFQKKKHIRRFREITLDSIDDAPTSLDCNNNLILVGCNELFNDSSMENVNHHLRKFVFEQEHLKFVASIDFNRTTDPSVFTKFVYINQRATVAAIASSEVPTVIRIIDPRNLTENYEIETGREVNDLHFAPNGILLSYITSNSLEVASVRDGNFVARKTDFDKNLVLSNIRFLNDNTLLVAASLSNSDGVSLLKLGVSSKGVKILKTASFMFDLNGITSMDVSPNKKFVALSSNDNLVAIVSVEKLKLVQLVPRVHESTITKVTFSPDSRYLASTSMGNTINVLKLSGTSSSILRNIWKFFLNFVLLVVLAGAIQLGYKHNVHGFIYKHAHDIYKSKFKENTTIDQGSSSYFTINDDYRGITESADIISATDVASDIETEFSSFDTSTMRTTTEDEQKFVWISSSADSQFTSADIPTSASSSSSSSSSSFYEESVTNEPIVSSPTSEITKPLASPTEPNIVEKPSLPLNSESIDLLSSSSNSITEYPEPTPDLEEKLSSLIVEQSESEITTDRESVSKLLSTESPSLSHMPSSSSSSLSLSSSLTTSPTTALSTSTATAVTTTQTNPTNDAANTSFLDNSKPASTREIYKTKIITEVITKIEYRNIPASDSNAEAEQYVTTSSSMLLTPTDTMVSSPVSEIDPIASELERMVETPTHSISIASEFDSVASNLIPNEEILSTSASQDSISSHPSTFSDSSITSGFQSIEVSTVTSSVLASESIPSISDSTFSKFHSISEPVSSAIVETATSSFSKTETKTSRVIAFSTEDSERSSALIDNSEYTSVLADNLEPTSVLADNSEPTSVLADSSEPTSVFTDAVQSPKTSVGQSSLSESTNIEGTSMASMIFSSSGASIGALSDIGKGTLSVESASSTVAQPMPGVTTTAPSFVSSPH

B1: Sed4–V5 (protein, UniProt P25365 1-1065)
chain: T2 sequence
- binding [1]: no binding
- binding (Sec16–HA (S. cerevisiae)): binds
- binding [2]: binds
- binding (Sed4–V5 (S. cerevisiae)): binds
- binding [3]: binds
